Experimental data: PubChem BioAssay AID504832 (National Center for Advancing Translational Sciences (NCATS), 2011)
Screen size: about 310,000 compounds; about 18,000 (5.8%) were called active. Inconclusive means that the source gave no clear call. Such entries were picked first, then a sample of the others. Calls follow the shape of the dose curve; as a rule, active = well fitted inhibition curve with a large enough effect; inconclusive = small, poorly fitted or top-dose-only effect, or another doubt; inactive = no such curve, though single readings can be large or run the other way. Potencies of inconclusive entries are left out as doubtful fits.
Potency is read from the fitted curve at half-maximal effect; tags tell the direction and shape of the fitted curve.

Assay: Primary qHTS for delayed death inhibitors of the malarial parasite plastid, 48 hour incubation
Settings: P. falciparum luciferase growth in erythrocytes; series mostly up to 28.7 µM
Summary of the method: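 Growth was read as firefly luciferase luminescence after a 48 h, 37 C, 5% CO2 exposure of compounds to reporter-bearing P. falciparum cultures (0.1% parasitemia, 2% hematocrit final) in Albumax-supplemented RPMI 1640.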
For `COc1ccc(C2=NN(C(=O)c3ccccc3)C(c3cccc([N+](=O)[O-])c3)C2)cc1` (centres undefined), the Potency was inconclusive [inhibitor, full curve].
In the case of `O=C(Cc1cccc2ccccc12)N/N=C/c1ccc(F)cc1`, the Potency was inconclusive [inhibitor, single point].
In the case of `O=C(O)C1C(=O)NCC1c1ccccc1` (centres undefined), the Potency was “inactive”.
In the case of `COc1ccccc1-c1cc(C(=O)NCc2ccc(F)cc2)no1`, the Potency was “inactive”.
With `COc1ccc(NC(=O)c2ccccc2NC(=O)C2CCCO2)cc1` (centres undefined) the Potency was “inactive”.
With `CCOC(=O)c1cc(-c2ccccc2)sc1NC(=O)CSc1nnnn1C` the Potency was inconclusive [inhibitor, single point].
In the case of `COc1ccc(C(=O)Nc2nc3ccc(S(C)(=O)=O)cc3s2)cc1OC`, the Potency was “inactive”.
In the case of `Fc1ccc(C(c2nnnn2CCc2ccccc2)N2CCCc3ccccc32)cc1` (centres undefined), the Potency was inconclusive [inhibitor, partial curve, poor fit].
For `O=C(NNC(=O)c1ccc(F)cc1)C(=O)N1CCCCC1`, the Potency was “inactive”.
For `Cc1cccc(OCC(=O)Nc2ccccc2N2CCCCC2)c1`, the Potency was inconclusive [inhibitor, partial curve].
For `CC1=NN(c2cccc([N+](=O)[O-])c2)C(=O)C1`, the Potency was inconclusive [inhibitor, partial curve, poor fit].
In the case of `COc1ccc(C2C3C(=O)N(Cc4ccccc4)C(=O)C3ON2c2ccccc2)c(OC)c1OC` (centres undefined), the Potency was inconclusive [inhibitor, single point].
In the case of `CCN(CC)CCN(C(=O)c1ccc(CN2CCCCC2)o1)C(C(=O)NC1CCCCC1)c1ccc(F)cc1` (centres undefined), the Potency was “inactive”.
For `CN/C(=C\[N+](=O)[O-])NCCSCc1ccc(CN(C)C)o1`, the Potency was inconclusive [inhibitor, single point].
For `O=C(CN1CCC(NC(=O)C2CCCCC2)CC1)Nc1cccc(F)c1`, the Potency was “inactive”.
In the case of `Cc1cc(C)cc(C(=O)N(CCc2ccccc2)C2CC3CCC(C2)N3C)c1` (centres undefined), the Potency was “inactive”.
In the case of `COc1ccc(N(CC(=O)Nc2ccc3c(c2)OCO3)S(=O)(=O)c2ccccc2)cc1`, the Potency was inconclusive [inhibitor, single point].
For `CCOc1ccccc1NC(=O)COC(=O)/C=C/c1ccc(OC)c(OC)c1`, the Potency was inconclusive [inhibitor, partial curve, poor fit].
For `CCCCC(=O)NC(=S)NNC(=O)c1ccc(Cl)cc1Cl`, the Potency was inconclusive [inhibitor, single point].
With `O=C(CC1(c2ccc(Cl)cc2)C2CC3CC(C2)CC1C3)NCCO` (centres undefined) the Potency was “inactive”.
For `Clc1ccc(CNc2ccc3nnc(-c4ccccc4)n3n2)cc1`, the Potency was inconclusive [inhibitor, single point].
With `COc1cccc(CC2(CO)CCCN(Cc3ccc(CN4CCCCC4)s3)C2)c1` (centres undefined) the Potency was inconclusive [inhibitor, single point].
For `COc1ccc(C(=O)NCCCc2nc3ccccc3n2Cc2cc(C)ccc2C)cc1OC`, the Potency was active: 11.7 µM.
For `COc1ccccc1-n1c([S-])c(C(=O)Nc2ccccc2C(F)(F)F)[n+]2ccc(C(=O)NCCO)cc12`, the Potency was inconclusive [inhibitor, single point].
In the case of `CC(C)(C)OC(=O)[C@H](Cc1ccccc1)NC(=O)c1nc[nH]c1C(=O)NC1CCN(C(=O)OC(C)(C)C)CC1`, the Potency was active: 4.65 µM.
For `Cc1ccc(S(=O)(=O)NCC(=O)N(CC2CCCO2)C(C(=O)NCC2CCCO2)C(C)C)cc1` (centres undefined), the Potency was “inactive”.
With `O=C(c1cnn2c(C(F)F)cc(-c3ccccc3)nc12)N1CCCCC1c1cccnc1` (centres undefined) the Potency was active: 1.65 µM.
With `O=C(NCC1CCCO1)c1cnc(Cl)c(Cl)c1` (centres undefined) the Potency was inconclusive [inhibitor, partial curve, poor fit].
With `COc1ccccc1N1CCN(C(=O)c2sc3nc4n(c(=O)c3c2C)CCC4)CC1` the Potency was inconclusive [inhibitor, partial curve].
For `FC(F)(F)c1ccccc1N/N=C/c1cccnc1`, the Potency was inconclusive [inhibitor, partial curve, poor fit].
In the case of `CCC1CCCCN1C(=O)COC(=O)c1n[nH]c2ccccc12` (centres undefined), the Potency was “inactive”.
In the case of `N#Cc1nc(-c2cccs2)oc1NCCCN1CCOCC1`, the Potency was inconclusive [inhibitor, single point].
In the case of `N#C/C(=C\c1c(Cl)cccc1Cl)c1nn(-c2ccccc2)c(-n2cccc2)c1C#N`, the Potency was inconclusive [inhibitor, partial curve, poor fit].
With `Cc1ccccc1NC(=O)/C=C/c1cccc(C(F)(F)F)c1` the Potency was “inactive”.
For `COc1cc(C(CC(=O)Nc2ccc(Cl)cn2)N2Cc3ccccc3C2=O)cc(OC)c1OC` (centres undefined), the Potency was inconclusive [inhibitor, single point].
With `O=[N+]([O-])c1ccc(Nc2nc(NC3CCCCC3)nc(N3CCCC3)n2)cc1` the Potency was inconclusive [inhibitor, full curve].
With `COc1cc(-c2cc(C(=O)N3CCN(c4ccccn4)CC3)c3ccccc3n2)cc(OC)c1OC` the Potency was inconclusive [inhibitor, single point].
With `C/C=C/C=C\C(=O)Nc1cccc(C2=NOC3(C2)C[C@@H](C(N)=O)N(C(=O)c2cc([N+](=O)[O-])cc([N+](=O)[O-])c2)C3)c1` (some centres undefined) the Potency was inconclusive [inhibitor, single point].
For `Cc1nn(Cc2cccc(C(=O)NC34CC5CC(CC(C5)C3)C4)c2)c(C)c1Br`, the Potency was active: 14.7 µM.
For `CCOC(=O)c1cc2c(=O)n3ccccc3nc2n(CCOC)c1=NC(=O)c1ccncc1`, the Potency was “inactive”.
In the case of `CCc1ccc2oc(=O)cc(CN3CCCCC3)c2c1`, the Potency was active: 11.7 µM.
In the case of `S=c1[nH]nc(-c2ccncc2)n1/N=C/c1cn(-c2ccccc2)nc1-c1ccc(Cl)cc1`, the Potency was inconclusive [inhibitor, single point].
For `CN1CCN(C(=O)/C(=C/c2cccc([N+](=O)[O-])c2)NC(=O)c2ccccc2)CC1`, the Potency was “inactive”.
With `NC1=Nc2cccc3cccc1c23` the Potency was inconclusive [inhibitor, single point].
For `Cc1nc(C)c(C(=O)C2=C(O)C(=O)N(CCCn3ccnc3)C2c2ccc(Cl)cc2)s1` (centres undefined), the Potency was “inactive”.
In the case of `CN1CCN(c2nc(-c3cccnc3)nc3scc(-c4ccccc4)c23)CC1`, the Potency was inconclusive [inhibitor, single point].
With `CCN(CC)CCNC(=O)c1ccc(NC(=O)c2cccc(-n3cnnn3)c2)cc1` the Potency was inconclusive [inhibitor, single point].
In the case of `CC(=O)/C(=N/Nc1ccc(Br)cc1)N1CCCc2ccccc21`, the Potency was “inactive”.
For `COc1ccc(C2CC(c3ccc4ccccc4c3)=NN2C(=O)COC(=O)C2CCC(=O)N2)cc1` (centres undefined), the Potency was “inactive”.
In the case of `CC(Sc1nnc(C(C)N(C)C)n1-c1ccc(Cl)cc1)C(=O)Nc1ccc2c(c1)OCO2` (centres undefined), the Potency was inconclusive [inhibitor, partial curve, poor fit].
For `COCC1CCN(C(=O)c2ccc3oc(Cc4ccccc4)nc3c2)C1` (centres undefined), the Potency was inconclusive [inhibitor, single point].
With `Cc1ccnc(NC(=O)c2ccc(S(=O)(=O)c3ccccc3)cc2)c1` the Potency was inconclusive [inhibitor, single point].
In the case of `CCOc1cccc2sc(=NC(=O)CCS(=O)(=O)c3ccccc3)n(CC)c12`, the Potency was inconclusive [inhibitor, single point].
For `O=C(CN(Cc1ccccc1)S(=O)(=O)c1ccc2c(c1)OCCO2)N/N=C/c1ccc(F)cc1`, the Potency was “inactive”.
In the case of `O=c1c2cnn(-c3ccccc3)c2nnn1/N=C/c1cccnc1`, the Potency was inconclusive [inhibitor, partial curve, poor fit].
With `c1ccc(N2CCN(c3ncnc4sc5c(c34)CCC5)CC2)cc1` the Potency was inconclusive [inhibitor, single point].
With `O=C(CCOc1cccc(Br)c1)Nc1ccc(F)c(S(=O)(=O)N2CCOCC2)c1` the Potency was inconclusive [inhibitor, single point].
For `COc1cc2cc[n+](Cc3ccc([N+](=O)[O-])cc3)cc2cc1OC`, the Potency was active: 4.65 µM.
For `Cc1cc(C(C)(C)C)c(O)c(C(C)(C)C)c1`, the Potency was “inactive”.
In the case of `COC(=O)c1cccnc1N1CCN(c2ccccc2F)CC1`, the Potency was inconclusive [inhibitor, single point].
For `c1ccc(C2=Nc3c(ccc4ccccc34)C(c3ccncc3)=NN2)cc1`, the Potency was inconclusive [inhibitor, single point].
In the case of `O=C(Nc1nc(-c2ccc(S(=O)(=O)N3CCCC3)cc2)cs1)c1ccco1`, the Potency was inconclusive [inhibitor, single point].
In the case of `Cc1ccc(OCC(=O)NNC(=O)CCC(=O)NCc2ccccc2)cc1`, the Potency was “inactive”.
In the case of `Cc1cc([N+](=O)[O-])cc(/C=N/n2c(C)nc3ccccc3c2=O)c1O`, the Potency was inconclusive [inhibitor, single point].
For `COc1cc(C(=O)O/N=C(\N)c2ccncc2)cc(OC)c1OC`, the Potency was active: 9.28 µM.
For `COc1ccccc1-c1nnc(SC2CCc3ccccc3NC2=O)s1` (centres undefined), the Potency was inconclusive [inhibitor, single point].
In the case of `Cc1onc(-c2ccccc2Cl)c1C(=O)Nc1nnc(-c2ccc(Br)cc2)s1`, the Potency was “inactive”.
In the case of `COc1cccc(CNC(=O)COC(=O)c2cccc(S(=O)(=O)N3CCCC3)c2)c1`, the Potency was inconclusive [inhibitor, single point].
In the case of `Nn1c(SCc2ccc(F)cc2)nnc1-c1ccncc1`, the Potency was inconclusive [inhibitor, full curve, poor fit].
